Assay results: the supplement of paper PMC12632987
Over roughly 1,800 sequences, “median log2 fold change of GCK-ALFA target abundance (FLAG IP / Myc IP barcode read proportion)” has its median near 0.14; the lowest 2% begin near -0.84. The list shows a part of the results.

T1: TRAF2, Q12933
T1 chain: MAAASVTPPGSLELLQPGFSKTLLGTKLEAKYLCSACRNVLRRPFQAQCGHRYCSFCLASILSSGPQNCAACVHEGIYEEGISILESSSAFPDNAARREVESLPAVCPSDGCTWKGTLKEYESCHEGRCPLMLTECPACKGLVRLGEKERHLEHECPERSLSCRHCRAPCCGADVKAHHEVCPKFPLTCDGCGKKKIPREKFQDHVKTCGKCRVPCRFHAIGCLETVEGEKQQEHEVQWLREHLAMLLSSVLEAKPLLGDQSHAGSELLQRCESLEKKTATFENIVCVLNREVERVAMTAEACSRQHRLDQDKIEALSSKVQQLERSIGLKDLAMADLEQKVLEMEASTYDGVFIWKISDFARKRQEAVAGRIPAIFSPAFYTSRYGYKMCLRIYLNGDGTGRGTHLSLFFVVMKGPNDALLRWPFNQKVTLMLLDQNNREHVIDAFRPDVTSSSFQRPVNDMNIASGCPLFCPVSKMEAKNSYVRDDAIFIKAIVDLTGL

B1: traf2_out_13_95_1038 (protein)
chain: SKELAEKIMEIADEMEERSLALLEAAKEELADDPEAVAVLTEAKRLAETKGISEALHLLREASAANPEHAARFDALIEELEAIRREAGRKVAKLIKEEEE
B2: traf2_out_13_95_1035 (protein)
chain: SKELAEEIMKIADEALEKIEALLREAQARLADDPEAVAVLDEALRLARTRGVNEAIHLLREAAERLPEHREEFDALIEEIEKIREEAGRKVAKLIKEAEE
B3: traf2_out_11_169_810 (protein)
chain: EEAEKNRKINDFALELNDEAVEKLKKEALKLAKEAGLDVEEVEKIFEENKGKSLSAVAAALIKYFKEKGAEEAAEKVLKLYEELKEEINKKMTEKIKELE
B4: traf2_out_6_3_2515 (protein)
chain: SEEEERKRNEEALEEASEMSPETLKRAAETALKELERLVADPNATETDVEAAASFITTLLEILRKNAEKHPEKAEEYKKFAEEIEKRMEELLAEWKKKRA
B5: traf2_out_11_169_842 (protein)
chain: EEQAKNRAINDKALELNDEAKAKLKEHALALAKAAGLDVADINAIFEANKGKSFSAIAGALIAYFNSKGKADAAAAVEAKYEELKEEINKKATAFIKSLE
B6: traf2_out_15_48_1354 (protein)
chain: STEKLRATAREINDLFDATLAAVAAELRALLPELPPELRPLVEAAIHEAEVNTSINNVIALLDEAIARADPELAARLQALRDRLEATKKEASAMMNETLK
B7: traf2_out_8_15_2557 (protein)
chain: SLREAARKDLEKLKAASDGDEETFVNFVIGYARGLLRLAEIYLEEGNKEAALNTLDYTEALLEEALKYAKERKSKYLPKLEEEAKKIRERAEEIRKRIEA
B8: traf2_out_1_158_905 (protein)
chain: STDVNTLYAVATSILDVYAEEAKERGLEKAAALLEEAKKAVEELYEKNKDASLEEMAEKFKELLKEFEEKSKSLPEEEREAVEIAFRQARSGIEQVVKLA
B9: traf2_out_13_95_1172 (protein)
chain: SEEKTKKEREIASEAFDKMEKIAEDFAAKVRALIDDPAADALMDEVVRRMNIFTLEHAADQLQAAFPEKAAEIAALRDEAAAKMKEIRKETTKKLNEIEE
B10: traf2_out_18_167_1823 (protein)
chain: SAETAARIEELTDRLVALSEIRRLALQARHAMATDPAAAPAALAALIAALRAVPEFRPYADELEAAPEADKAALLERIADAAQRAANEAYKEREKLIEEA
B11: traf2_out_17_178_1738 (protein)
chain: SKEELLKKISEYADKLLDTNKEAMDKLKEIAEKEGVLTPELRALLDETSKNANLYHFEEVADKVIELVSSKEEVTKLKKETTAKMKELNKKIQEAYDKLE
B12: traf2_out_17_162_1636 (protein)
chain: AAVEEALKRIEKELEELRKKTEEFKELLKEIDKLTKEELTDYLVEASEARRRARELIVEVESLKDKIDPELRKEIIEELEKIAEELQKIANAFYKKREEL
B13: traf2_out_3_89_2307 (protein)
chain: AAEREATLEEMRREMEAYIRGFEKSARYVAKQMLADGASLDTLRGVLEAARSALLEVLRERMRERGLSEEEIEELLEEAEKRLNEVVERVVAAAEAERAA
B14: traf2_out_13_95_1175 (protein)
chain: EEEKTKKEREIASEAADRLEAVARRYAAEVAALLGDPEAAALAAEVVKNANIYTLEHAAAQLEARFPEKAAEIRALRDRAVAEMRAIRRETTAELNKIEE
B15: traf2_out_18_3_1938 (protein)
chain: KEEELKKVSEEIDKIIDEVTKKAREELERAKKEYPEFKEEVEELEKLLEAGAGPFGILEELAELAKKAGDEETAKEIEKFLEEKKKKLQELVDKYEELRK
B16: traf2_out_20_3_2240 (protein)
chain: SELEKKLKEELAKLKALLEELAPLLPPEDAARLRALLDAAEAAYKTDLSDALVELSELRRALLELAERARAAGDEETAAKLEAAADEAGRAMQLVYELIE
B17: traf2_out_16_104_1421 (protein)
chain: EAERQAAFDEAIARLEAIAAEAQRIANELMKLYEKASPEKKTALSDLLVEASELRRRALLAAQQARQDREAGGDLEEVRRTLEELEAELAALKAQLEALK
B18: traf2_out_3_89_2311 (protein)
chain: SMAQEAKIKEAKERAERYIKGFEKSARFVAEQMVKEGMSLETIRGVLEAAKSALVEELRETLKEMGLPEEEIEKIVEEFTKKLDEIVEKVVKEAEERRKK
B19: traf2_out_20_3_2180 (protein)
chain: MELEKKLEEELEKAEKLLKEAAKLADEETAKRLEKLIKRLKASRELSYDDRLVELSEIRRELLRLAEEARKRGKEELAKVLEKAADALNRAMNLVYKIIE
B20: traf2_out_6_156_2432 (protein)
chain: SPEEILKEAKEEIKKLIKELAAAPESKKIKYISKIAGTFYRALQRLRAAGASLEEIEKAAEELIETAEKEAKKAGLPEDTINLLLSSLNAVRDVALASAA
B21: traf2_out_17_178_1673 (protein)
chain: DKEKERKKISEYTDKLIDLTEETGTRLLALAEAEGALSPEELALLRQALRSGSANTLLAVARRLAPKLPSAAEAQALLDEFEKEKKELSKKIAEALAKYE
B22: traf2_out_17_162_1610 (protein)
chain: SELEERLRRIEERLERLEKKLKELEEKLKEIEKLSKEELTDLLVEASEARREAREALEEVEELRDLLDPERYEELSRRLEELAEKFQRIANEFYKELEKK
B23: traf2_out_13_95_1209 (protein)
chain: EEEKTKKLREVTNEIADDLIDFVEALAAEIEAATGRAEHRDAILAALRRYGVRAAVALIREYAAADPAHAAVYRAAADAAEAKIREAGKRIAKEDKKIEE
B24: traf2_out_6_156_2441 (protein)
chain: MKEEILKKTKEEIEEYIKKLAESSEEKHIIWFNKIAGAIYRGLQQLRDAGASLEELKEFAEELKEVIEKYLKKYGLPESIKNEVLSSVNAVFDVALREAA
B25: traf2_out_20_3_2232 (protein)
chain: SELEKEAEKKLEEALKKIEEIIKVADEETKKLLEELKKKLEEAKELDPVDRLVVASEVRRQLLLLKQEAEAAGNEELAKLLEEAAELLQRLMQLLYKIIE
B26: traf2_out_17_178_1736 (protein)
chain: TKEEIRKEIAELADERLDVTKEAMDKLKAILEAEGVLTPELAALLDQVAKTSNLYAFEEVADKAIALSSRKEEVQALKDETVKKLKELDKKIQEAVDKLE
B27: traf2_out_3_89_2296 (protein)
chain: SAAREAKLEEARRNMERYIRGFRKSAEYVAKQMLADGHSLDTLRGVLEAARNALVEEFRESLKERGLSEEDIEELVKKLTEELDKIVEEVVAAAEKARAA
B28: traf2_out_11_169_823 (protein)
chain: EEAEFNRKINDKALELNDEAVKKLEEFALALAKEEGLDVEEVKAIFEEHKGASLSAVAAALIEHFRSKGKEEAAEKVLEKYEELKEEINKKMSEFLKELK
B29: traf2_out_17_178_1672 (protein)
chain: DKEKEREKISELTDELIDLTEETGRRLLALAEAEGRLSPEELAALRAAIRSGSANTLLAVARRLAPRLSRAEEANAILAEFEKKYRELSKEIAEAYKKYE

Target: T1, TRAF2, Q12933
Assay: median log2 fold change of GCK-ALFA target abundance (FLAG IP / Myc IP barcode read proportion) (log2 ratio); each designed protein is fused to an ALFA-tag nanobody in HEK293 cells to bring the named protein to FLAG-tagged glucokinase (GCK); Myc marks an untargeted standard; higher = target protein stabilised (more abundant)
Conditions: target protein: 3xFLAG-MCP-GCK-ALFA reporter; HEK293 landing pad (RPLP)
Procedure, shortened: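 Sequencing of reverse-transcribed, amplified circular RNA barcodes from anti-FLAG and anti-Myc immunoprecipitates provided the readout for an ALFA-nanobody-fused binder library recombined into HEK293 landing-pad cells. Those cells were induced with 2 μg mL^−1 doxycycline, transfected with a plasmid expressing a FLAG-tagged target and a Myc-tagged standard, and lysed after 48 h. Target abundance is the per-binder median log2 ratio of FLAG to Myc barcode read proportions. Only barcodes at a proportion of ≥10^−7 in both replicates and binders with ≥3 barcodes per replicate were kept, with a 10^−6 pseudocount added before the two replicates were pooled.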

Row | Binder | median log2 fold change
1 | B1 | -0.177
2 | B2 | -0.171
3 | B3 | -0.000749
4 | B4 | -0.0174
5 | B5 | 0.282
6 | B6 | 0.274
7 | B7 | -0.529
8 | B8 | 0.107
9 | B9 | 0.0918
10 | B10 | 0.321
11 | B11 | 0.108
12 | B12 | 0.176
13 | B13 | -0.204
14 | B14 | 0.212
15 | B15 | 0.173
16 | B16 | 0.104
17 | B17 | 0.266
18 | B18 | -0.281
19 | B19 | 0.263
20 | B20 | 0.0462
21 | B21 | 0.111
22 | B22 | 0.32
23 | B23 | -0.0226
24 | B24 | 0.0652
25 | B25 | -0.00636
26 | B26 | 0.146
27 | B27 | -0.311
28 | B28 | 0.0147
29 | B29 | 0.219
